In publication PMC4336329 (PLoS ONE, 2015):
Hit rate of the full screen: of about 310,000 compounds, about 2,200 (0.71%) showed an effect of 50% or more. The effect is printed as a negative number. Some of the results follow.

Each compound was assayed against human ether-à-go-go-related gene (hERG) potassium channel (human, UniProt Q12809) (assay: primary screen, population patch clamp on CHO cells stably expressing hERG).
human ether-à-go-go-related gene (hERG) potassium channel, sequence (Q12809 whole entry, looked up): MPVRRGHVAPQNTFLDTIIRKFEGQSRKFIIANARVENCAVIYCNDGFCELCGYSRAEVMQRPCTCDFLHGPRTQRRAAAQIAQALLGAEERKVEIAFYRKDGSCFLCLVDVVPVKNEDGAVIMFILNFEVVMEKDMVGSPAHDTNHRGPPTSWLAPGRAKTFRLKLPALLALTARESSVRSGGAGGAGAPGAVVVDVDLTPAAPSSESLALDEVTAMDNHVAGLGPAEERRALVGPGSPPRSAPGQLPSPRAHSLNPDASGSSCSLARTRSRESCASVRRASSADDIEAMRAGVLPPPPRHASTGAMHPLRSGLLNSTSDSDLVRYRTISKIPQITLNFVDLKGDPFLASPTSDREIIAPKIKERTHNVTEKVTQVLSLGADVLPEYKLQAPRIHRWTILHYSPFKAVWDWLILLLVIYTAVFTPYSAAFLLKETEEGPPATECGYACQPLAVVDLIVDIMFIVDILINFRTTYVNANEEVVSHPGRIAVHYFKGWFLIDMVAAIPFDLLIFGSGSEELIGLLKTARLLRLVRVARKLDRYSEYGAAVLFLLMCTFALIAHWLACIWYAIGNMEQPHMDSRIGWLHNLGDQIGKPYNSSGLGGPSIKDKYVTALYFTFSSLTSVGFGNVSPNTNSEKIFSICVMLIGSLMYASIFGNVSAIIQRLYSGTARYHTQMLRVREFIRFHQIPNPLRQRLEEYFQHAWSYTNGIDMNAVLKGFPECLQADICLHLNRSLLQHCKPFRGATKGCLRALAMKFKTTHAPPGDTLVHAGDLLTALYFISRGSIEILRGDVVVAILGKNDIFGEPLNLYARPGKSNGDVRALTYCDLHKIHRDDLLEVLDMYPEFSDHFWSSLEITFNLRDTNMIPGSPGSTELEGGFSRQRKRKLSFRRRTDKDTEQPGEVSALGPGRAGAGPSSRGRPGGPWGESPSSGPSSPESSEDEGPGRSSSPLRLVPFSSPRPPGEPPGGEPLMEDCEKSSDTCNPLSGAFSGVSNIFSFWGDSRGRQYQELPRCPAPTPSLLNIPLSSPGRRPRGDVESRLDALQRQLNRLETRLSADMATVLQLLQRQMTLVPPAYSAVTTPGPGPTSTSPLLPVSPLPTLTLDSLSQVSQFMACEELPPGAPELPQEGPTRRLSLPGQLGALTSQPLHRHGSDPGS
In the case of Cn1nc(N)nc1N1CCN(c2ccc(F)cc2)CC1, the “hERG current change (%, negative = inhibition) at 1uM” value is reported as 10.1%.
In the case of CCCOc1ccc(C(=O)NC2CCSc3ccccc32)cc1 (stereo not drawn), the “hERG current change (%, negative = inhibition) at 1uM” value is reported as 8.1%.
For O=C(Cc1c[nH]c2ccccc12)N1CCN(c2ccccc2)CC1, the “hERG current change (%, negative = inhibition) at 1uM” value was 13.6%.
With O=C(CCc1ccccc1)Nc1sc2c(c1C(=O)O)CCCC2 the “hERG current change (%, negative = inhibition) at 1uM” value was 20.1%.
In the case of COc1ccc(C(=O)NNC(=O)c2ccncc2)cc1[N+](=O)[O-], the “hERG current change (%, negative = inhibition) at 1uM” value is reported as 19.8%.
For COc1ccc(NC(=O)CSc2nc(=O)n(CCN3CCOCC3)c3c2CCC3)c(OC)c1, the “hERG current change (%, negative = inhibition) at 1uM” value was 1.42%.
In the case of Cc1ccc(C2=NC3(CCCCC3)N=C2SCC(=O)Nc2ccc3c(c2)OCCO3)cc1, the “hERG current change (%, negative = inhibition) at 1uM” value is reported as 9.55%.
With O=C1CCCC(=O)C1C(c1ccc(Cl)cc1)C1C(=O)CCCC1=O the “hERG current change (%, negative = inhibition) at 1uM” value was 13.5%.
In the case of CC(C)(C)C#CC(CCc1ccccc1)OS(N)(=O)=O (stereo not drawn), the “hERG current change (%, negative = inhibition) at 1uM” value is reported as 10.3%.
For COCC(C)n1c(SCc2ccc(C(=O)OC)o2)nc2ccccc2c1=O (stereo not drawn), the “hERG current change (%, negative = inhibition) at 1uM” value was 12.7%.
For O=C(NCCc1ccccc1)c1ccc2c(c1)S(=O)(=O)N=C1CCCCCN12, the “hERG current change (%, negative = inhibition) at 1uM” value was 10%.
With O=C(Nc1cccc(-c2nc3ccccc3[nH]2)c1)c1ccccn1 the “hERG current change (%, negative = inhibition) at 1uM” value was 9.76%.
For Cc1cc(NC(=O)c2ccc(S(=O)(=O)N3CCOCC3)cc2)nc2c1c(=O)oc1ccccc12, the “hERG current change (%, negative = inhibition) at 1uM” value was 4.35%.
In the case of CCC(C)NC(=O)c1ccc(CS(=O)(=O)c2ccc(OC)cc2)o1 (stereo not drawn), the “hERG current change (%, negative = inhibition) at 1uM” value is reported as 6.38%.
CCOc1cccc(C(=O)NC(c2ccccc2)C(C)C)c1 (stereo not drawn) was tested, and the “hERG current change (%, negative = inhibition) at 1uM” value was 5.97%.
COc1ccc(CC(=O)NCC(=O)N/N=C/c2c[nH]c3ccccc23)cc1 was tested, and the “hERG current change (%, negative = inhibition) at 1uM” value was 14%.
For COc1ccc(COC(=O)c2ccc(S(=O)(=O)N3CCCCC3)cc2)cc1OC, the “hERG current change (%, negative = inhibition) at 1uM” value was 8.5%.
In the case of CCc1ccc(NC(=S)N(CCC(C)C)C2CCN(C(C)=O)CC2)cc1, the “hERG current change (%, negative = inhibition) at 1uM” value is reported as 4.58%.
With COc1cc(OC)c(OC)cc1CNCCNC(=O)c1ccco1 the “hERG current change (%, negative = inhibition) at 1uM” value was 16.5%.
With O=C(NCC1CCCO1)c1ccc(COc2ccc(Cl)cc2)cc1 (stereo not drawn) the “hERG current change (%, negative = inhibition) at 1uM” value was 3.24%.
In the case of Cc1cc(C)c(C)c(S(=O)(=O)Nc2cccc(-n3cnnn3)c2)c1C, the “hERG current change (%, negative = inhibition) at 1uM” value is reported as 18.3%.
Cc1nnc2n1N=C(c1ccc3c(c1)NC(=O)CO3)CS2.Cl was tested, and the “hERG current change (%, negative = inhibition) at 1uM” value was 7.37%.
With O=C(NN=C1CCCCCC1)NC1CCCCC1 the “hERG current change (%, negative = inhibition) at 1uM” value was -0.0518%.
In the case of C=CCn1c(SCC(=O)NCCc2ccccc2)nnc1C(C)NC(=O)c1cccs1 (stereo not drawn), the “hERG current change (%, negative = inhibition) at 1uM” value is reported as 11.2%.
For CC(C)NC(=O)c1ccc(COc2ccc(C(C)(C)C)cc2)o1, the “hERG current change (%, negative = inhibition) at 1uM” value was 10.8%.
O=C(CCC1N=C2c3ccccc3N=C(SCC(=O)NCC3CCCO3)N2C1=O)NCc1ccc(F)cc1 (stereo not drawn) was tested, and the “hERG current change (%, negative = inhibition) at 1uM” value was 6.16%.
With Cc1ccc(S(=O)(=O)Cn2cnnn2)cc1 the “hERG current change (%, negative = inhibition) at 1uM” value was 9.39%.
In the case of C=CCNC(=O)c1oc2ccc(S(=O)(=O)N3CCCCC3)cc2c1C, the “hERG current change (%, negative = inhibition) at 1uM” value is reported as 12.7%.
In the case of CCCc1[nH]nc2c1C1(C(=O)N(CC(N)=O)c3ccccc31)C(C(=O)OC)=C(N)O2 (stereo not drawn), the “hERG current change (%, negative = inhibition) at 1uM” value is reported as 4.35%.
In the case of CCC(=O)N1CCc2cc(S(=O)(=O)CCC(=O)NCCc3ccc(OC)c(OC)c3)ccc21, the “hERG current change (%, negative = inhibition) at 1uM” value is reported as 5.24%.
With COc1ccc(-c2nnc3ccc(SCC(=O)Nc4nccs4)nn23)cc1OC the “hERG current change (%, negative = inhibition) at 1uM” value was 3.93%.
Cc1nnc2c(N(C)S(=O)(=O)c3ccccc3)nc3ccccc3n12 was tested, and the “hERG current change (%, negative = inhibition) at 1uM” value was 14.6%.
In the case of O=C(O)c1ccccc1C(=O)Nc1ccccc1[N+](=O)[O-], the “hERG current change (%, negative = inhibition) at 1uM” value is reported as 12.5%.
With O=C(N/N=C/c1ccc(O)cc1)/C(=C/c1ccc([N+](=O)[O-])cc1)NC(=O)c1ccccc1 the “hERG current change (%, negative = inhibition) at 1uM” value was 14.7%.
In the case of O=C(CSc1nc(-c2ccccc2)c(-c2ccccc2)o1)NCCCO, the “hERG current change (%, negative = inhibition) at 1uM” value is reported as -5.16%.
COc1ccc(/C([O-])=C(/C(=S)Nc2ccc(C)c(C)c2)n2c[n+](C)c3ccccc32)cc1OC was tested, and the “hERG current change (%, negative = inhibition) at 1uM” value was 7.62%.
With C/C(CCc1ccccc1)=N\NC(=O)CCc1ccccc1 the “hERG current change (%, negative = inhibition) at 1uM” value was -0.863%.
With CCOC(=O)/C(C#N)=C/c1ccc(N2CCN(Cc3ccccc3)CC2)cc1 the “hERG current change (%, negative = inhibition) at 1uM” value was 5.93%.
CC1(C)Cc2c(c(-c3ccccc3)nc(N3CCCC3)c2C(N)=O)CO1 was tested, and the “hERG current change (%, negative = inhibition) at 1uM” value was 1.91%.
Oc1[nH]c2ccccc2c1C=Nc1ccccc1 was tested, and the “hERG current change (%, negative = inhibition) at 1uM” value was -0.519%.
In the case of COC(=O)c1cc(C(=O)OCC(=O)c2ccc[nH]2)cc([N+](=O)[O-])c1, the “hERG current change (%, negative = inhibition) at 1uM” value is reported as -0.0222%.
For COc1ccc(O[C@H]2C=C[C@@H](c3ccccc3)O[C@@H]2CO/N=C(\C)CCN2CCc3nc(-c4ccccc4)c(-c4ccccc4)cc3C2)cc1, the “hERG current change (%, negative = inhibition) at 1uM” value was 8.64%.
With COc1ccccc1NS(=O)(=O)c1cc(NC(=O)c2ccncc2)ccc1N1CCCC1 the “hERG current change (%, negative = inhibition) at 1uM” value was 11.6%.
For COc1ccc(N(CC(=O)NCc2ccccc2Cl)S(=O)(=O)c2c(C)n[nH]c2C)cc1, the “hERG current change (%, negative = inhibition) at 1uM” value was 14.4%.
COc1cccc(OC)c1OCCOCCN1CCN(C)CC1 was tested, and the “hERG current change (%, negative = inhibition) at 1uM” value was 19.8%.
O=C(Nc1ccc2c(c1)C(=O)OC2)Nc1cccc2ccccc12 was tested, and the “hERG current change (%, negative = inhibition) at 1uM” value was 3.96%.
For Cc1onc(-c2c(F)cccc2Cl)c1C(=O)NNC(=O)C1CCN(Cc2ccccc2)CC1, the “hERG current change (%, negative = inhibition) at 1uM” value was -0.35%.
CCn1c(SCC(=O)Nc2nccs2)nnc1-c1cccnc1 was tested, and the “hERG current change (%, negative = inhibition) at 1uM” value was 10.9%.
In the case of Cc1ccccc1Cn1nnc(C(=O)Nc2ccc3c(c2)OCCO3)c1N, the “hERG current change (%, negative = inhibition) at 1uM” value is reported as 8.16%.
For COc1cc(/C=C/C(=O)O)cc(S(=O)(=O)Nc2ccccc2C(=O)NCCc2ccccc2)c1OC, the “hERG current change (%, negative = inhibition) at 1uM” value was 16.9%.
For CCN(CC)S(=O)(=O)c1ccc(OC)c(NC(=O)Cc2cccs2)c1, the “hERG current change (%, negative = inhibition) at 1uM” value was 13.1%.
In the case of O=C(Nc1ccccc1Br)C(=O)N1CCCC1, the “hERG current change (%, negative = inhibition) at 1uM” value is reported as 5.46%.
With C=CCOC(=O)C1=C(C)NC(=O)NC1c1ccc(Cl)cc1 (stereo not drawn) the “hERG current change (%, negative = inhibition) at 1uM” value was 9.35%.
For O=C(COc1ccccc1Cl)Nc1ccc2oc(=O)ccc2c1, the “hERG current change (%, negative = inhibition) at 1uM” value was 15.7%.
